# Laboratory results taken from PubChem BioAssay (NCATS).
# Some of the results follow. These are further read-outs of the screen, such as a control signal, another cell line or another target. No call is given for them. For some of these results: Most of these compounds were active or inconclusive in the main read-out, so they are no random draw. Potencies come from curve fits of mixed quality, noted in brackets.
# Experiments:
# [1] = target: Catechol O-methyltransferase (Homo sapiens) (UniProt P21964); experiment: Confirmatory Screen for Target Class Profiling of Small Molecule Inhibitors of Methyltransferases (AID 1745852); settings: MTase-Glo luminescence, SAH detection, recombinant enzyme; measured here: COMT inhibition potency;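 note: inhibitor potency for blocking SAH production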
# [2] = target: Histamine N-methyltransferase (Homo sapiens) (UniProt P50135); experiment: as above; settings: MTase-Glo luminescence, SAH detection, recombinant enzyme; measured here: HNMT inhibition potency
# [3] = target: Nicotinamide N-methyltransferase (Homo sapiens) (UniProt P40261); experiment: as above; settings: MTase-Glo luminescence, SAH detection, recombinant enzyme; measured here: NNMT inhibition potency
# [4] = target: Phenylethanolamine N-methyltransferase (Homo sapiens) (UniProt P11086); experiment: as above; settings: MTase-Glo luminescence, SAH detection, recombinant enzyme; measured here: PNMT inhibition potency
# [5] = qHTS drug screen for cell cycle checkpoint inhibitors in PARPi-resistant BRCA-mutant ovarian cancer cell lines. (AID 1963452); settings: PEO1/OlaR viability, CellTiter-Glo luminescence, 96 h
# How it was run: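 PEO1, PEO4 and PEO1/OlaR ovarian cancer cells, 600 per well, exposed 96 h at 37C to a dilution series. Viability read by CellTiter-Glo luminescence, normalized to DMSO and empty wells; activity summarized as Z-AUC.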
# [6] = qHTS for identification of novel therapeutic agents for treatment of microphthalmiaassociated transcription factor (MiT) renal cell carcinoma (RCC) (AID 1963991); settings: CellTiter-Glo, 48 h; for z-score: stronger effect = lower value
# How it was run: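 Three TFE3-fusion RCC cell lines (UOK109, UOK124, UOK145), 500 cells/well, were exposed to the 1912-compound MIPE 4.0 library for 48 hours at 37 C. Viability was read by CellTiter-Glo luminescence, normalised to DMSO (100%) and empty wells (0%), with 11-concentration curve fits.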
# [7] = NCATS anti-infectives library activity on the primary C. elegans qHTS viability assay (AID 1745855); settings: C. elegans worm area imaging, day 7; measured here: worm area, day 3
# How it was run: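 GFP read-out by 488 nm laser cytometry at day 0, 3 and 7, gated on object perimeter, area and peak intensity, scored viability of PE254-GFP-FLuc worms exposed to compound in S medium with bacterial capsules at 21 °C.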
# [8] = measured here: PEO1 parental viability
# [9] = TFE3-RCC UOK109 viability, measured here: UOK109 Z-AUC
# [10] = TFE3-RCC viability, measured here: UOK124 Z-AUC
# [11] = TFE3-RCC viability, measured here: UOK124 cell viability
# [12] = TFE3-RCC viability, measured here: UOK145 Z-AUC
# [13] = TFE3-RCC viability, measured here: UOK145 cell viability
# Tags give direction and shape of the fitted curve.
# Sequence of UniProt P50135 (P50135 whole entry, looked up): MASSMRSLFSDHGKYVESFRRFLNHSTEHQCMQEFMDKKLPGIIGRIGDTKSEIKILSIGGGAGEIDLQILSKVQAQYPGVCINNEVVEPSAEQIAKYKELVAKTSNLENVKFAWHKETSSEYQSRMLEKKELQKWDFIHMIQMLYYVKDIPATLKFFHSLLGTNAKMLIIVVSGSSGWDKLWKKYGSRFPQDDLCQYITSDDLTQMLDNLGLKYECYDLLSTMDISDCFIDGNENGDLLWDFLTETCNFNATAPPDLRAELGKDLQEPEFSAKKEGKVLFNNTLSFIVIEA
# Sequence of UniProt P11086 (P11086 whole entry, looked up): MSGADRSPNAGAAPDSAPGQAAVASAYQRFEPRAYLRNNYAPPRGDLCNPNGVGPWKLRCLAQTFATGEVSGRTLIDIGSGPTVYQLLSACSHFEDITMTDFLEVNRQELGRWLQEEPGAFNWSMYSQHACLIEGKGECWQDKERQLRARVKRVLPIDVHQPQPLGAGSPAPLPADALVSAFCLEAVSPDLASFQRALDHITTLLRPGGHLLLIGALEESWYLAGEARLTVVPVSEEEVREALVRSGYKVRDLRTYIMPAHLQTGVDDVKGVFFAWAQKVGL
# Sequence of UniProt P40261 (P40261 whole entry, looked up): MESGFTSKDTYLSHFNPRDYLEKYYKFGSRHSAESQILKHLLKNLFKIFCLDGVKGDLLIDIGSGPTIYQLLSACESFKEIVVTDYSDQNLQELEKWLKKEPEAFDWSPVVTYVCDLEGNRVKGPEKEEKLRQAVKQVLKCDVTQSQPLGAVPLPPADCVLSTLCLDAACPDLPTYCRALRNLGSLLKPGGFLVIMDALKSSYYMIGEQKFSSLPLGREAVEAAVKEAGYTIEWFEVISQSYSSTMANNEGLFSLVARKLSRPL
# Sequence of UniProt P21964 (P21964 whole entry, looked up): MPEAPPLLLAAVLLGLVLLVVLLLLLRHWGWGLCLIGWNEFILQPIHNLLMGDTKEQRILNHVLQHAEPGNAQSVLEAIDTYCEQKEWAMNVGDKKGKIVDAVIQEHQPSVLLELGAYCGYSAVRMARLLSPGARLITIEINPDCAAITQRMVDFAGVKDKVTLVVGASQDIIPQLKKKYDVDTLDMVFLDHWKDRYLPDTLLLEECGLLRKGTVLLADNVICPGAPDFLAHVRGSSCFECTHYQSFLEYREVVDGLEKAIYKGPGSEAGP
compound,measurement,setting,value
Nc1cccc(-c2cc3c(Oc4cccc(O)c4)ncnc3[nH]2)c1,IC50,[1],"24.1 µM [falling, partial curve]"
same,IC50,[2],"34.1 µM [falling, single point]"
same,IC50,[3],"24.1 µM [falling, partial curve]"
same,IC50,[4],"21.5 µM [falling, partial curve]"
same,AC50,[5]; [8],"27.5 µM [falling, single point]"
same,AC50,[5]; measured here: PEO4 viability,"15.5 µM [falling, single point]"
same,z-score,[6]; [9],-1.34
same,z-score,[6]; [10],-0.522
same,AC50,[6]; [11],"3.72 µM [falling, partial curve]"
same,z-score,[6]; [12],-0.928
same,AC50,[6]; [13],"18.7 µM [falling, partial curve]"
COc1cc2ncnc(Nc3ccc(F)c(Cl)c3)c2cc1NC(=O)/C=C/CN1CCCCC1,IC50,[1],"21.5 µM [falling, partial curve]"
same,IC50,[2],"17.1 µM [falling, partial curve]"
same,IC50,[3],"24.1 µM [falling, partial curve]"
same,IC50,[4],"24.1 µM [falling, partial curve]"
same,AC50,[5]; [8],"4.36 µM [falling, partial curve]"
same,AC50,[5]; measured here: PEO4 viability,"4.9 µM [falling, full curve]"
N#C/C(=C\c1ccc(O)c(O)c1)C(=O)NCCCNC(=O)/C(C#N)=C/c1ccc(O)c(O)c1,IC50,[1],"19.3 µM [falling, partial curve, poor fit]"
same,IC50,[2],"6.85 µM [falling, full curve]"
same,IC50,[3],"15.3 µM [falling, partial curve]"
same,IC50,[4],"9.68 µM [falling, full curve]"
N#Cc1cccc(-c2c[nH]c3ncnc(N4CCOCC4)c23)c1,IC50,[1],"21.5 µM [falling, partial curve]"
same,IC50,[2],"19.2 µM [falling, partial curve]"
same,IC50,[3],"24.1 µM [falling, partial curve]"
same,IC50,[4],"21.5 µM [falling, partial curve]"
CC(C)(C)c1ccc(-c2nc3ccccc3[nH]2)cc1,IC50,[1],"9.37 µM [falling, partial curve]"
same,IC50,[2],"10.5 µM [falling, partial curve]"
same,IC50,[3],"9.37 µM [falling, partial curve]"
same,IC50,[4],"9.37 µM [falling, partial curve]"
O=C(CCc1ccccc1)N1CCNc2cnc(Nc3cccnc3)nc2C1,IC50,[1],"39.3 µM [falling, partial curve, poor fit]"
same,IC50,[2],"39.3 µM [falling, single point]"
same,IC50,[3],"35 µM [falling, partial curve]"
same,IC50,[4],"35 µM [falling, partial curve]"
CC(C)[C@@](C)(O)[C@@H]1CN(c2nc(-c3[nH]nc4ncccc34)c(F)cc2Cl)CCN1,IC50,[1],"24.1 µM [falling, partial curve]"
same,IC50,[2],"24.1 µM [falling, partial curve]"
same,IC50,[3],"24.1 µM [falling, partial curve]"
same,IC50,[4],"24.1 µM [falling, partial curve]"
Cc1cc(C)cc(-c2cnc3cc(Cl)c(-c4cccc(O)c4)cc3c2OCCCN)c1,IC50,[1],"24.1 µM [falling, partial curve]"
same,IC50,[2],"21.5 µM [falling, partial curve]"
same,IC50,[3],"3.04 µM [falling, full curve]"
same,IC50,[4],"24.1 µM [falling, partial curve]"
Cc1nc(CN(C)c2ncnc3ccc(-c4ccc5c(c4)OCO5)cc23)cs1,IC50,[1],"17.1 µM [falling, partial curve]"
same,IC50,[2],"17.1 µM [falling, partial curve]"
same,IC50,[3],"19.2 µM [falling, partial curve]"
same,IC50,[4],"17.1 µM [falling, partial curve]"
O=C(O)c1ccc2c(c1)nc(Nc1cccc(Cl)c1)c1ccncc12,IC50,[1],"21.5 µM [falling, partial curve]"
same,IC50,[2],"21.5 µM [falling, partial curve]"
same,IC50,[3],"27.1 µM [falling, partial curve]"
same,IC50,[4],"24.1 µM [falling, partial curve]"
same,AC50,[7],"0.916 µM [falling, partial curve, poor fit]"
same,AC50,[5]; [8],"6.16 µM [falling, partial curve]"
same,AC50,[5]; measured here: PEO4 viability,"3.47 µM [falling, partial curve]"
same,z-score,[6]; [9],0.0846
same,z-score,[6]; [10],0.0428
same,AC50,[6]; [11],"16.6 µM [falling, partial curve]"
same,z-score,[6]; [12],-0.17
same,AC50,[6]; [13],"13.2 µM [falling, partial curve]"
O=C(Nc1ccccc1-c1cn2c(CN3CCNCC3)csc2n1)c1cnc2ccccc2n1,IC50,[1],"7.64 µM [falling, full curve]"
same,IC50,[2],"9.61 µM [falling, full curve]"
same,IC50,[3],"30.6 µM [falling, partial curve]"
same,IC50,[4],"8.57 µM [falling, full curve]"
same,AC50,[5]; [8],"15.5 µM [falling, single point]"
same,AC50,[5]; measured here: PEO4 viability,"19.5 µM [falling, partial curve]"
same,z-score,[6]; [9],-0.586
same,z-score,[6]; [10],-0.419
same,AC50,[6]; [11],"16.6 µM [falling, partial curve]"
same,z-score,[6]; [12],-0.522
same,AC50,[6]; [13],"29.6 µM [falling, single point]"
Cc1cc(C)c(CNC(=O)c2cc(-c3cnn(C)c3C)cc3c2OCCN3C)c(=O)[nH]1,IC50,[1],"35 µM [falling, partial curve]"
same,IC50,[2],"39.3 µM [falling, partial curve]"
same,IC50,[3],"39.3 µM [falling, partial curve]"
same,IC50,[4],"31.2 µM [falling, partial curve]"
COc1ccc(-c2nnn3c2nc(N2CCOCC2)c2ccccc23)cc1,IC50,[1],"21.5 µM [falling, partial curve]"
same,IC50,[2],"21.5 µM [falling, partial curve]"
same,IC50,[3],"21.5 µM [falling, partial curve, poor fit]"
same,IC50,[4],"21.5 µM [falling, partial curve]"
c1ccc(-c2[nH]nc3ncc(-c4cn[nH]c4)nc23)cc1,IC50,[1],"27.8 µM [falling, partial curve]"
same,IC50,[2],"31.2 µM [falling, partial curve]"
same,IC50,[3],"31.2 µM [falling, partial curve]"
same,IC50,[4],"27.8 µM [falling, partial curve]"
COc1ccc2nc3n[nH]c(C)c3c(NCCOCCO)c2c1,IC50,[1],"21.5 µM [falling, partial curve]"
same,IC50,[2],"21.5 µM [falling, partial curve]"
same,IC50,[3],"27.1 µM [falling, single point]"
same,IC50,[4],"24.1 µM [falling, partial curve]"
same,AC50,[5]; measured here: PEO4 viability,"27.5 µM [falling, single point]"
COc1cc2c(Nc3ccc(Cl)c(Cl)c3F)ncnc2cc1OCC1C[C@@H]2CN(C)C[C@@H]2C1 (some centres not stated),IC50,[1],"19.2 µM [falling, partial curve]"
same,IC50,[2],"4.82 µM [falling, full curve]"
same,IC50,[3],"21.5 µM [falling, partial curve]"
same,IC50,[4],"21.5 µM [falling, partial curve]"
same,AC50,[5]; [8],"4.36 µM [falling, partial curve]"
same,AC50,[5]; measured here: PEO4 viability,"6.16 µM [falling, partial curve]"
O=C(O)C1(Cc2cccc(Nc3nccs3)n2)CCC(Oc2cccc(Cl)c2F)CC1 (configuration not stated),IC50,[1],"24.1 µM [falling, single point]"
same,IC50,[2],"27.1 µM [falling, partial curve]"
same,IC50,[3],"24.1 µM [falling, single point]"
same,IC50,[4],"24.1 µM [falling, partial curve]"
same,AC50,[5]; [8],"3.09 µM [falling, partial curve]"
same,AC50,[5]; measured here: PEO4 viability,"0.245 µM [falling, full curve]"
same,z-score,[6]; [9],0.262
same,z-score,[6]; [10],-0.102
same,AC50,[6]; [11],"0.833 µM [falling, full curve]"
same,z-score,[6]; [12],0.594
Cc1cccc(Nc2nc(-c3ccncc3)cs2)c1,IC50,[1],"9.61 µM [falling, partial curve]"
same,IC50,[2],"6.07 µM [falling, full curve]"
same,IC50,[3],"17.1 µM [falling, partial curve]"
same,IC50,[4],"10.8 µM [falling, partial curve]"
same,AC50,[5]; [8],"19.5 µM [falling, partial curve]"
same,AC50,[5]; measured here: PEO4 viability,"17.4 µM [falling, partial curve]"
same,z-score,[6]; [9],-0.399
same,z-score,[6]; [10],-0.937
same,AC50,[6]; [11],"13.2 µM [falling, partial curve]"
same,z-score,[6]; [12],-0.414
same,AC50,[6]; [13],"13.2 µM [falling, partial curve]"
O=C(Nc1cc2cc[nH]c2cn1)c1ccccc1,IC50,[1],"19.2 µM [falling, partial curve]"
same,IC50,[2],"19.2 µM [falling, partial curve]"
same,IC50,[3],"17.1 µM [falling, partial curve]"
same,IC50,[4],"19.2 µM [falling, partial curve]"
same,z-score,[6]; [9],-0.197
same,z-score,[6]; [10],-0.235
same,AC50,[6]; [11],"16.6 µM [falling, partial curve]"
same,z-score,[6]; [12],0.367
same,AC50,[6]; [13],"16.6 µM [falling, partial curve]"
COc1ccccc1-c1[nH]nc2ncc(C(=O)NCC3CC3)nc12,IC50,[1],"44.1 µM [falling, single point]"
same,IC50,[4],"35 µM [falling, partial curve]"
Cn1c(=O)n(C)c2cc(S(=O)(=O)Nc3ccc(-c4nnc(-c5ccccc5)o4)c(Cl)c3)ccc21,IC50,[1],"24.1 µM [falling, partial curve, poor fit]"
same,IC50,[3],"24.1 µM [falling, partial curve, poor fit]"
COc1ccc(CCNC(=O)c2ccc3c(=O)[nH]c4c(C(=O)NC5CCCC5)sc(=S)n4c3c2)cc1OC,IC50,[1],"21.5 µM [falling, partial curve]"
same,IC50,[3],"21.5 µM [falling, partial curve]"
